Results from paper PMC9511441, “Semisynthetic teicoplanin derivatives with dual antimicrobial activity against SARS-CoV-2 and multiresistant bacteria” (Scientific Reports, 2022).

What was measured:
[1] = target: T1, SARS-CoV-2 spike receptor-binding domain (S-RBD) and human ACE2 receptor (hACE2) (Homo sapiens, UniProt Q9BYF1); test: biochemical; conditions: read-out: ACE2-spike interaction % inhibition at 100 µM
[2] = target: T1, SARS-CoV-2 spike receptor-binding domain (S-RBD) and human ACE2 receptor (hACE2)

Compound	inhibition at 100 µM [1] [%]	ACE2-spike interaction % inhibition at 100 µM [2] [%]
N=C(N)NCCSCCCOc1cc(C(=O)OCc2ccccc2)cc(OCCCSCCNC(=N)N)c1OCCCSCCNC(=N)N [Compound 24]	7.4 ± 12	
teicoplanin [reference compound]		34 ± 7
O=C(O)CCC(F)(F)C(F)(F)C(F)(F)C(F)(F)C(F)(F)C(F)(F)C(F)(F)C(F)(F)F [Compound 14]	5.7 ± 5.3	
